Results reported in PubChem BioAssay AID624417 (National Center for Advancing Translational Sciences (NCATS), 2012).
Where “and” joins values, the source holds several entries; their conditions need not be identical. Equal entries are not always repeated. The campaign covered roughly 410,000 compounds. About 6,400 (1.6%) were called active. This list was built around the results that the source calls inconclusive (neither active nor inactive); the mix of calls is not that of the screen. Calls come from the whole dose curve; as a rule, active = well fitted inhibition curve with a large enough effect; inconclusive = small, poorly fitted or top-dose-only effect; inactive = no such curve, though single readings can be large or run the other way. A potency beside an inconclusive call is a rough fit, not a confirmed value.

target: Glucagon-like peptide 1 receptor (Homo sapiens) (UniProt P43220); experiment: qHTS of GLP-1 Receptor Inverse Agonists (Inhibition Mode); conditions: HEK293 GLP-1R CRE-luciferase, luminescence, 24 h, GLP-1R form is constitutively active; series mostly up to 38.3 µM; note: nearly all actives have a fitted effect of over 55% in size
Method in brief: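 GLP-1R inverse agonism mode: basal reporter luminescence in engineered HEK293 cells measured after one day of compound exposure at 37 deg C, with a 12 min room-temperature detection step.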
Potency is the fitted concentration of half-maximal effect; tags give direction and shape of the fitted curve.

Chain of UniProt P43220 (P43220 whole entry, looked up): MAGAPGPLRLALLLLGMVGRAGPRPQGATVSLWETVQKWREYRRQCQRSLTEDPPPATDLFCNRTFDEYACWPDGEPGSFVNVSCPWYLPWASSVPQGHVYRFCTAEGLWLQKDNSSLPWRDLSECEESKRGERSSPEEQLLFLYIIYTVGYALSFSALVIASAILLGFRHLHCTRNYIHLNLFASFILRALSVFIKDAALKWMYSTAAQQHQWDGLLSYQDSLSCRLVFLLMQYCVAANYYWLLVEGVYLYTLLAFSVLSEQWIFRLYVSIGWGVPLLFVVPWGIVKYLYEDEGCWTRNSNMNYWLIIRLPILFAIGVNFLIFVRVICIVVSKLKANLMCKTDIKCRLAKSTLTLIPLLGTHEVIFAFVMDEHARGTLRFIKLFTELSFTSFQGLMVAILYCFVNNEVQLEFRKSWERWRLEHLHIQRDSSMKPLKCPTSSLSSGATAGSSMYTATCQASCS

Row | SMILES | Potency
1 | CCOC(=O)CSc1nc2ccccc2c(=O)n1CC(C)C | inconclusive: 11.2 µM [inhibitor, single point]
2 | Cc1cc(Cl)cc(C)c1OCCCCCn1ccnc1 | inconclusive: 11.2 µM [inhibitor, single point]
3 | CC(C)(C)NC(=O)[C@@H]1C[C@@H]2CCCC[C@@H]2CN1C[C@@H](O)[C@H](Cc1ccccc1)NC(=O)[C@H](CC(N)=O)NC(=O)c1ccc2ccccc2n1 | inconclusive: 12.6 µM [inhibitor, single point] and inconclusive: 28.2 µM [inhibitor, single point]
4 | Cc1cc(=O)n(Cc2cccc(Cl)c2)c2c1c(C)nn2C | inactive
5 | Cc1ccccc1OCCCC(=O)NCc1ccco1 | inconclusive: 28.2 µM [inhibitor, single point]
6 | O=C1C(Oc2ccc(Cl)cc2)C(c2ccc3c(c2)OCO3)N1CC1CCCO1 (stereo not drawn) | inconclusive: 11.2 µM [inhibitor, single point]
7 | CCn1c2c(c(=O)n3ncc(C(=O)N4CCN(c5ccccc5)CC4)c13)CN(Cc1ccc(OC)cc1)CC2 | inconclusive: 14.1 µM [inhibitor, single point]
8 | COc1ccc(OC)c(C2C(C(=O)Nc3ccc(C)cc3C)=C(C)Nc3c(C(=O)Nc4ccc(F)cc4)cnn32)c1 (stereo not drawn) | inconclusive: 8.91 µM [inhibitor, partial curve, poor fit]
9 | NC(=O)CN1C(=O)NC2(CCOc3ccccc32)C1=O (stereo not drawn) | inactive
10 | COc1ccc(/C=C/CN2CCC(CO)(Cc3ccccc3Cl)CC2)cc1 | inconclusive: 12.6 µM [inhibitor, partial curve, poor fit]
11 | CCn1c(CNc2ccc(Cl)cc2)nnc1SCC(=O)OC1CCCCC1 | inconclusive: 20 µM [inhibitor, single point]
12 | COc1cccc(CNC(=O)N2CCc3c(sc4c3CCCC4)C2c2ccc(F)cc2)c1 (stereo not drawn) | inconclusive: 5.01 µM [inhibitor, full curve, poor fit]
13 | COc1ccc2c(c1)c(C(O)CN1CCC(Cc3ccccc3)CC1)c(C)n2C (stereo not drawn) | inconclusive: 8.91 µM [inhibitor, partial curve, poor fit]
14 | CCc1noc(C)c1C(=O)Oc1ccc(N(C)S(=O)(=O)c2ccc(C)c(C)c2)cc1 | active: 12.6 µM
15 | Cc1cccc(C(=O)NCCc2nc3ccccc3n2Cc2ccccc2Cl)c1 | inconclusive: 10 µM [inhibitor, partial curve, poor fit]
16 | Cc1cc(Nc2cccc(C(F)(F)F)c2)nc2ccc(NC(=O)Cc3ccc(Cl)cc3)cc12 | inconclusive: 2.51 µM [inhibitor, full curve, poor fit]
17 | Cc1ccc(NC(=O)NC2=NN(c3ccccc3)C(=O)/C2=C2/CCCN2C)cc1 | inconclusive: 12.6 µM [inhibitor, single point]
18 | COc1ccc(S(=O)(=O)NCC(c2cccs2)N2CCc3ccccc3C2)cc1 (stereo not drawn) | inconclusive: 10 µM [inhibitor, partial curve, poor fit]
19 | O=C(NCCCN1CCOCC1)c1ccc2c(c1)N(Cc1c(F)cccc1Cl)C(=O)c1ccccc1S2 | inconclusive: 20 µM [inhibitor, single point]

Row | SMILES | Potency
20 | O=C(NCc1cccc(Br)c1)C1CC(c2ccc(C(F)(F)F)cc2)=NO1 (stereo not drawn) | inconclusive: 25.1 µM [inhibitor, single point]
21 | CC(C)c1ccc2c(c1)NC(c1ccc(F)cc1)=NC(c1cccs1)=N2 | inconclusive: 14.1 µM [inhibitor, single point]
22 | COCCN(C(=O)CCC(=O)Nc1ccccn1)C(C(=O)NC(C)C)c1ccc(C)cc1 (stereo not drawn) | inconclusive: 28.2 µM [inhibitor, single point]
23 | CC(C)COc1ccc(/C(=N/O)c2ccccc2)cc1 | inconclusive: 28.2 µM [inhibitor, single point]
24 | CCOC(=O)Cn1c(S(=O)(=O)Cc2ccc(F)cc2)nc(-c2ccccc2)c1-c1ccccc1 | inactive
25 | C[C@@H]1CCC(=O)N(CC[C@H](Sc2ccccc2)c2ccccc2)CC1 | inconclusive: 3.55 µM [inhibitor, partial curve, poor fit]
26 | O=C(CNc1ccc2ccccc2c1)N/N=C/c1ccccn1 | inconclusive: 0.891 µM [inhibitor, full curve, poor fit]
27 | CC1(C(=O)NS(=O)(=O)c2ccc3c(c2)CCO3)CCN1C(=O)c1ccccc1CCc1ccccc1 (stereo not drawn) | inconclusive: 1.58 µM [inhibitor, full curve, poor fit]
28 | CCCn1c2ccccc2c2cnn(CC(=O)NCC3CCN(Cc4ccc(C)cc4)CC3)c(=O)c21 | inconclusive: 31.6 µM [inhibitor, single point]
29 | CCCCn1nnnc1C1(C)CCC(=O)N1Cc1cccnc1 (stereo not drawn) | inactive
30 | Cc1c(C(=O)NCc2ccccn2)sc2nc(-c3ccccc3)cn12 | inconclusive: 2 µM [inhibitor, full curve, poor fit]
31 | COc1ccccc1Nc1nc(NCC2CCCO2)c2ccccc2n1 (stereo not drawn) | inconclusive: 5.01 µM [inhibitor, full curve, poor fit]
32 | CCOc1ccccc1NC(=O)Cn1c(=O)n(CC(=O)NCc2ccccc2Cl)c(=O)c2sccc21 | inactive
33 | COc1cc(CNc2ncnc3c2ncn3[C@H]2CN(Cc3ccc(-c4ccccc4)cc3)C[C@@H](CO)O2)cc(OC)c1OC | inconclusive: 1.78 µM [inhibitor, partial curve, poor fit]
34 | CCCN(CCC)C(=O)Cn1c(=O)n(-c2ccc(OC)cc2OC)c(=O)c2c3c(sc21)CCC3 | inactive
35 | Cc1ccc(Sc2ccc(N3CCCC(C(=O)Nc4ccc(F)c(Cl)c4)C3)nn2)cc1 (stereo not drawn) | inactive
36 | CC(C)C[C@H](NC(=O)c1[nH]cnc1C(=O)Nc1ccccc1)C(=O)OC(C)(C)C | inconclusive: 7.94 µM [inhibitor, partial curve, poor fit]
37 | CC1CN(c2nnnn2-c2ccccc2)CC(C)O1 (stereo not drawn) | inactive
38 | CC[C@]12C(=O)N(C)C[C@H]([C@@H]3C(=O)N(Cc4ccccc4)C(=O)[C@@H]31)N2C(=O)c1ccc(C(F)(F)F)cc1 | inactive
